In all, about 420,000 compounds went through this assay and about 64,000 (15%) were called active. The shares of active, inactive and inconclusive entries below differ from those in the screen. Calls come from the whole dose curve; as a rule, active = well fitted inhibition curve with a large enough effect; inconclusive = small, poorly fitted or top-dose-only effect; inactive = flat fitted curve, though single readings scatter. No potency is given beside an inconclusive call; the fits are too rough.
Test: qHTS for Inhibitors of human tyrosyl-DNA phosphodiesterase 1 (TDP1): qHTS in cells in absence of CPT; note: nearly all actives have a fitted effect of over 55% in size
Details: DT40 Tdp1-/- hTDP1 cells, no CPT, ATP luminescence, 48 h; activity change, negative = growth inhibition: at 46.2 µM (top of the series)
How it was run: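 Camptothecin absent (DMSO only). Human TDP1-complemented DT40 knockout cells, 400 cells/well, 37 °C for minimum 48 hr; ATP measured via CellTiter-Glo, 30 min dark incubation, luminescence.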
% is set by controls: 0 for no effect and ±100 for the full control effect; potency is the fitted concentration of half-maximal effect; tags give direction and shape of the fitted curve.

Compound | Potency | activity change, negative = growth inhibition
CN(C)Cc1c(-c2ccc(Cl)cc2)nc2ccc(Cl)cn12 | active: 13 µM | –
Cc1ccc([C@@H]2CC=C(C(=O)O)[C@H](c3ccc(Br)cc3)N2S(=O)(=O)c2ccc(C)cc2)cc1 | inconclusive [inhibitor, single point] | –
CC(C)CC(=O)NC(=S)Nc1cc(C(F)(F)F)ccc1N1CCOCC1 | inconclusive [inhibitor, partial curve] | –
Cc1ccc(-c2nnc(NC(=O)c3c(F)cccc3Cl)s2)cc1 | inactive | –
O=C(CN(C(=O)Cn1nnc(-c2cccs2)n1)c1ccc2c(c1)OCCO2)NCc1ccccc1 | inconclusive [inhibitor, single point] | –
Cc1cc(C(=O)COC(=O)Cn2c(C(F)(F)F)nc3ccccc32)c(C)n1Cc1ccco1 | inconclusive [inhibitor, partial curve] | –
COc1ccc(-c2c(C)nn3c(N4CCCCCC4)cc(C)nc23)cc1OC | active: 25.9 µM | –
Cc1ccc(C(=O)N2CCn3c4c(c5cc(C)ccc53)CCCC42)cc1 (stereo unspecified) | inconclusive [inhibitor, single point] | –
CCCCNC(=O)CCC(=O)Nc1ccc2nc(N3CCCCC3)cc(C)c2c1 | inconclusive [inhibitor, single point] | –
COc1ccc(-c2nc3c(n2O)CCCC3=O)cc1OC | inactive | –
C=CCC(COCc1ccccc1)NS(=O)(=O)c1ccccc1Br (stereo unspecified) | inconclusive [inhibitor, single point] | –
Cc1ccc2[nH]c(=O)c(CN(CCCN(C)C)C(=O)Nc3cccc(Cl)c3)cc2c1 | inconclusive [inhibitor, single point] | –
CC(NC(=O)CSc1nnnn1C1CC1)c1ccccc1Br (stereo unspecified) | inactive | –
CCC1=NN(C(=O)Cc2ccc([N+](=O)[O-])cc2)C(O)(c2ccc(Br)cc2)C1 (stereo unspecified) | inactive | –
CN(C)C(CNC(=O)c1cc(Br)c(Br)s1)c1ccco1 (stereo unspecified) | inconclusive [inhibitor, single point] | –
CC1=C(C(=O)OCCc2ccccc2)C(c2ccsc2)NC(=O)N1C (stereo unspecified) | inactive | –
COC(=O)Nc1ccc(S(=O)(=O)N2CCC(Cc3ccccc3)CC2)cc1 | active: 20.6 µM | –
O=C(Nc1ccc2c(c1)OCCO2)C1CCN(c2nnnn2-c2ccccc2)CC1 | inconclusive [inhibitor, partial curve] | –
O=C(NCc1cccnc1)c1ccc(Cl)cc1[N+](=O)[O-] | inconclusive [inhibitor, single point] | –
CC(C)n1nnnc1C1c2ccccc2C(=O)N1CCc1ccc(O)cc1 (stereo unspecified) | inactive | –
CC(NC(=O)CNC(=S)N(Cc1cccs1)C1CCCC1)c1ccccc1 (stereo unspecified) | active: 16.4 µM | –
CCC(Sc1nncn1C)C(=O)Nc1nnc(-c2ccccc2Cl)s1 (stereo unspecified) | inactive | –
CC(=O)NN1C(=O)/C(=C\c2ccccc2)SC1=S | inconclusive [inhibitor, single point] | –
CCOc1ccc(CCNC(=O)C2CCN(Cc3nc(-c4ccc(OC)c(OC)c4)oc3C)CC2)cc1OCC | inactive | –

Compound | Potency | activity change, negative = growth inhibition
COc1ccc(-n2c(/C=C/c3cccc(C(F)(F)F)c3)nc3ccccc3c2=O)cc1Cl | active: 13 µM | –
CCOc1ccccc1NC(=O)C1CCN(S(=O)(=O)c2ccc3[nH]c(=O)ccc3c2)CC1 | inactive | –
CCC(=O)N1CCc2cc(Br)cc(S(=O)(=O)N3CCCC(C(=O)NCc4ccc(F)cc4)C3)c21 (stereo unspecified) | inconclusive [inhibitor, partial curve] | –
O=C(c1cc(C(F)(F)F)cc(C(F)(F)F)c1)N1CCC2(CC1)CN(Cc1ccncc1)C2 | inconclusive [inhibitor, single point] | –
Cn1cc(S(=O)(=O)N2CCCCCC2)cc1C(=O)N1CCN(c2cccc(C(F)(F)F)c2)CC1 | active: 23.1 µM | –
COc1ccc(C2SCCN2S(=O)(=O)c2ccc(NC(C)=O)cc2)cc1OC (stereo unspecified) | inconclusive [inhibitor, single point] | –
COc1cc(C(=O)N2CCC2(C)C(=O)NC(C)C)cc(OC)c1OC (stereo unspecified) | inactive | –
COc1ccc(NC(=O)CCc2ccc(OC)c(OC)c2)cn1 | inactive | –
Cc1ccc(CNC(C)c2ccccc2)cc1 (stereo unspecified) | inconclusive [inhibitor, partial curve, poor fit] | –
Cc1cc(C)nc(/N=C(\N)N(Cc2ccccc2)Cc2ccccc2)n1 | inconclusive [inhibitor, single point] | –
CC(C(=O)Nc1cccc(S(=O)(=O)N2CCOCC2)c1)N1CCN(C/C=C/c2ccccc2)CC1 (stereo unspecified) | inconclusive [inhibitor, single point] | –
Cc1ccc(S(=O)(=O)N2CCN(Cc3cc(Br)ccc3O)CC2)cc1 | inconclusive [inhibitor, single point] | –
O=C(Cc1ccccc1)Nc1ccc(NC(=O)c2cccnc2)cc1 | inactive | –
CCC(C)NC(=O)c1ccccc1NC(=O)c1ccc(CSc2ccccc2)cc1 (stereo unspecified) | inconclusive [inhibitor, single point] | –
CCCC1CCC(c2ccc(/C(N)=N/O)cc2)CC1 (stereo unspecified) | active: 14.6 µM | –
N#Cc1ccccc1NC(=O)C(=O)NCCc1csc(-c2ccc(C(F)(F)F)cc2)n1 | inconclusive [inhibitor, partial curve, poor fit] | –
CS(=O)(=O)c1ccc(-n2nnc3ccccc32)c([N+](=O)[O-])c1 | inconclusive [inhibitor, partial curve, poor fit] | –
CCN(N=O)c1ccc(C=C2C=Cc3ccccc32)cc1 | inactive | –
COC(=O)c1nc(NC(=O)C(C)(C)C)n[nH]1 | inconclusive [inhibitor, partial curve] | –
CN(C)c1ccc(NC(=O)c2ccc(COc3cccc(Cl)c3)o2)cc1 | inconclusive [inhibitor, single point] | –
C[C@H](NC(=O)COc1ccccc1)C(=O)OCC(=O)c1cc2ccccc2o1 | inconclusive [inhibitor, single point] | –
CSc1ccccc1NC(=O)CN(C)C(=O)CCc1c[nH]c2ccccc12 | inactive | –
CC1(C)CC(=O)C=C(c2ccc(COC(=O)c3cccc(C(F)(F)F)c3)cc2)C1=O | inconclusive [inhibitor, single point] | –
O=C(NCc1ccccc1)C(C1CC1)n1c(=O)c(-c2ccco2)nc2ccccc21 (stereo unspecified) | active: 16.4 µM | –

Compound | Potency | activity change, negative = growth inhibition
COc1cc(C(=S)N2CCOCC2)ccc1OC(=O)c1ccccc1 | inactive | –
COc1ccc(-c2cc(C(=O)O)[nH]n2)cc1OC | inactive | –
CCCn1c(SCC(=O)Nc2cccc(C)n2)nnc1C(C)C | inactive | –
CCc1nc2ccc(C(=O)NCCc3ccc(OC)cc3)cc2nc1CC | inconclusive [inhibitor, single point] | –
CCc1cccc(NC(=O)[C@@H]2CCCN2C2=NS(=O)(=O)c3ccccc32)c1 | inactive | –
Cc1ccsc1/C=N/NC(=O)c1nnn(-c2nonc2N)c1C(C)C | inconclusive [inhibitor, single point] | –
COc1cccc(-c2cc3nc(NCc4ccccc4OC)n(C)c(=O)c3s2)c1 | active: 20.6 µM | –
Cn1c(NC(=O)/C=C\c2ccccc2)cc(=O)n(C)c1=O | – | inconclusive: -33.4% [inhibitor]
C=CCOc1ccc(/C=N/NC(=O)C(=O)Nc2ccccn2)cc1OC | inconclusive [inhibitor, single point] | –
CCC(=O)Nc1nnc(S(=O)(=O)N(CC)c2ccc(OC)cc2)s1 | inactive | –
CC(=O)c1c(C)[nH]c(C(=O)COC(=O)c2cc(S(=O)(=O)N(C)c3ccccc3)ccc2Cl)c1C | inconclusive [inhibitor, partial curve, poor fit] | –
Cn1c(SCC(=O)Nc2cccc(F)c2)nc2c([nH]c3ccccc32)c1=O | inactive | –
Cn1cnnc1SCc1ccc(C(=O)N=Nc2c(O)n(C)c3ccccc23)cc1 | inconclusive [inhibitor, single point] | –
Cc1nc(SCC(=O)N2CCCCC2)c2c(C)c(C)sc2n1 | inconclusive [inhibitor, partial curve, poor fit] | –
CCCC[C@@H]1CCCO[C@@](C(=O)NCc2ccc(C)o2)(C(F)(F)F)C1 | inconclusive [inhibitor, single point] | –
CCOc1ccc(CN(C(=O)c2ccccn2)c2ccc(OC)c(Cl)c2)cc1 | inconclusive [inhibitor, single point] | –
O=C(NCc1ccccc1)c1cccc(NC(=O)C2CCCCC2)c1 | inconclusive [inhibitor, single point] | –
O=C(NCC1CCCO1)c1cn(Cc2ccccc2)nc1-c1ccc(Cl)cc1 (stereo unspecified) | inconclusive [inhibitor, single point] | –
CC(C)c1ccc(NC(=O)Nc2cnccn2)cc1 | active: 7.31 µM | –
Cc1ccc(C(=O)NC(=S)Nc2cccnc2Cl)cc1 | inconclusive [inhibitor, single point] | –
COCCC(=O)N1CCCC(C(=O)c2ccc3c4c(cccc24)CC3)C1 (stereo unspecified) | inconclusive [inhibitor, single point] | –
CC1(C(=O)Nc2cccc(Oc3ccccc3)c2)CCN1Cc1ccccc1OC(F)F (stereo unspecified) | inconclusive [inhibitor, single point] | –
CCCn1cc(SCC(=O)NC2CCCC2)c2ccccc21 | inconclusive [inhibitor, single point] | –

— PubChem BioAssay AID686978 (National Center for Advancing Translational Sciences (NCATS), 2013)
